Measured values reported in the RNAGym collection of RNA variant scans (doi:10.1073/pnas.2313332121).
Variants at the floor of the assay are shown more often than the library holds them.

B1: TPR 5TU (parent)
chain: GGAUCUUCUCGAUCUAACAAAAAAGACAAAUCUGCCACAAAGCUUGAGAGCAUCUUCGGAUGCAGAGGCGGCAGCCUUCGGUGGCGCGAUAGCGCCAACGUUCUCAACUAUGACACGCAAAACGCGUGCUCCGUUGAAUGGAGUUUAUCAUG

Variants of: B1
Test: polymerase ribozyme fitness, log enrichment relative to wild type (log ratio); higher = more active; in vitro selection for triplet polymerase activity
Procedure, shortened: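 The heterodimeric triplet polymerase ribozyme's subunits were each mutagenized into PCR-built libraries and transcribed. Every library was selected once, in triplicate, by annealing with a biotinylated primer, the partner subunit and triplets, incubating frozen at −7 °C, gel-excising extended constructs, capturing on streptavidin beads and running RT-PCR. Input and output libraries were Illumina-sequenced, with genotypes kept only at ≥10 input reads and ≥1 read per output. Fitness, from inverse-variance-weighted replicate averages, is the base-2 logarithm of genotype enrichment over wild-type enrichment.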

| Variant | polymerase ribozyme fitness (log ratio) |
| --- | --- |
| U56A A60G | 0.416 |
| U56A A60U C93A U109G A113U U139G U145C A147G | ≤ -4.2 |
| U56A A66C C69U G83U U135G | ≤ -4.2 |
| U56A A66G G68A G81C A89C | ≤ -4.2 |
| U56A A73C G94C | -3.51 |
| U56A A73G C76U | 0.764 |
| U56A A73U C87G C99G | ≤ -4.2 |
| U56A A89G C99A | -1.89 |
| U56A A89U U139C | ≤ -4.2 |
| U56A A91G C95U C105G A120G | -3.49 |
| U56A A91U A119U | ≤ -4.2 |
| U56A A91U A121U U144A | ≤ -4.2 |
| U56A A110C | -3.84 |
| U56A C57A C85G | -0.79 |
| U56A C57A C85U C87U | -0.523 |
| U56A C57A C85U C87U U144A U146G | ≤ -4.2 |
| U56A C57U G59U C87A | ≤ -4.2 |
| U56A C69A G84A | -1.63 |
| U56A C69U A73C A91C | ≤ -4.2 |
| U56A C69U C129U | -0.94 |
| U56A C72U C76U C85U | -1.17 |
| U56A C75A | ≤ -4.2 |
| U56A C75A C96U U104C | ≤ -4.2 |
| U56A C75A G136A U151G | ≤ -4.2 |

| Variant | polymerase ribozyme fitness (log ratio) |
| --- | --- |
| U56A C75G C93A A98G A106C G141A | ≤ -4.2 |
| U56A C75U A89C C95A C99G G126A | ≤ -4.2 |
| U56A C76U | 0.105 |
| U56A C76U C87A A138G | ≤ -4.2 |
| U56A C76U G88U C129U A138U | ≤ -4.2 |
| U56A C79A C85U G92A C93G C96U | ≤ -4.2 |
| U56A C79G A91G C105U U127G | ≤ -4.2 |
| U56A C79G C85G | ≤ -4.2 |
| U56A C79G C87G C96U A142G | ≤ -4.2 |
| U56A C79U C103G G141A | ≤ -4.2 |
| U56A C79U G83A | ≤ -4.2 |
| U56A C85A | -2.02 |
| U56A C85A C103G A122C | ≤ -4.2 |
| U56A C85G C93G A107U U111G | ≤ -4.2 |
| U56A C85U A91U C95U U104G U134C | ≤ -4.2 |
| U56A C85U G128U | -2.89 |
| U56A C87A | ≤ -4.2 |
| U56A C87G A89C A119U G141A | ≤ -4.2 |
| U56A C87U A98U C116G | 0.0809 |
| U56A C93U C95U C103A C105A | ≤ -4.2 |
| U56A C93U U127C | -2.73 |
| U56A C95A | -0.487 |
| U56A C95A C103G C132A U146A | ≤ -4.2 |
| U56A C96A G100C | ≤ -4.2 |

| Variant | polymerase ribozyme fitness (log ratio) |
| --- | --- |
| U56A C96U G100A U104G | ≤ -4.2 |
| U56A C96U U145A G152A | -2 |
| U56A C99U | -0.614 |
| U56A C103A A110G U144G | -3.91 |
| U56A C118G A150G | -2.41 |
| U56A C125G | -1.56 |
| U56A C132G A137U | -4.03 |
| U56A C149A | -3.67 |
| U56A G58A C87G G133U | ≤ -4.2 |
| U56A G58C C79G C87U | ≤ -4.2 |
| U56A G58U A91U | ≤ -4.2 |
| U56A G58U A97C C99A | -2.52 |
| U56A G58U A119G C131A | -2.04 |
| U56A G58U C63A A115U C118U | -1.35 |
| U56A G58U C69U C95A C96A C118U | -2.19 |
| U56A G59A C87G U90G A137U G143C U146C | ≤ -4.2 |
| U56A G59C G68A A91G C93U A106C | ≤ -4.2 |
| U56A G59U C63G C87U | 1.72 |
| U56A G59U C79A G94A C105A C149U | ≤ -4.2 |
| U56A G59U G74C C95U A122C | ≤ -4.2 |
| U56A G59U G83A G92U C99A G141C | ≤ -4.2 |
| U56A G62A A97G C103A | -3.45 |
| U56A G62A G92A G124C | ≤ -4.2 |
| U56A G62U G74C G83A G152U | ≤ -4.2 |

| Variant | polymerase ribozyme fitness (log ratio) |
| --- | --- |
| U56A G65A G94C A150U | -1.57 |
| U56A G65U C72A C87G C93U | ≤ -4.2 |
| U56A G67A A73G G83A A91G U109C A110U A137U | ≤ -4.2 |
| U56A G67C C93U C103A U130A U148C | ≤ -4.2 |
| U56A G67C G80A | ≤ -4.2 |
| U56A G67U G84A A107U G133U G141C | ≤ -4.2 |
| U56A G68A C103U U148A | ≤ -4.2 |
| U56A G68U C85U U102G A113C G141A | ≤ -4.2 |
| U56A G68U C93A A122C C125U | ≤ -4.2 |
| U56A G68U G81C U145A | ≤ -4.2 |
| U56A G68U G83C G117A A119U G140A | ≤ -4.2 |
| U56A G70C G83U G143A | ≤ -4.2 |
| U56A G71A U82C A91C C108U G143C | ≤ -4.2 |
| U56A G74A U104A C131G U144G C149U | ≤ -4.2 |
| U56A G74C A122G | ≤ -4.2 |
| U56A G80A A138U G143C | ≤ -4.2 |
| U56A G80A U90A | ≤ -4.2 |
| U56A G80C G92A | ≤ -4.2 |
| U56A G80U | -0.898 |
| U56A G83A C108U G133A | ≤ -4.2 |
| U56A G83C C96U U127A | ≤ -4.2 |
| U56A G84C | -1.66 |
| U56A G84U | -1.11 |
| U56A G84U C95U G140C | ≤ -4.2 |

| Variant | polymerase ribozyme fitness (log ratio) |
| --- | --- |
| U56A G86A C96U U111A G136U A147U | ≤ -4.2 |
| U56A G86A U90G G100A U139C G152C | ≤ -4.2 |
| U56A G86C G124C U148A | ≤ -4.2 |
| U56A G92A U148G | ≤ -4.2 |
| U56A G92C C96A U148A | ≤ -4.2 |
| U56A G92C U139A G140U | -3.76 |
| U56A G100U | -4.09 |
| U56A G117A | -0.176 |
| U56A G141A | 0.775 |
| U56A G152A | -2.52 |
| U56A G152U | -2.37 |
| U56A U61A C76G G84A C103G | ≤ -4.2 |
| U56A U61A C114G | -3.96 |
| U56A U61G | -1.7 |
| U56A U61G A66U G136U A138C G141C U145G | ≤ -4.2 |
| U56A U61G G65A C85A G86A A121U U127A | ≤ -4.2 |
| U56A U77C | -2.93 |
| U56A U77G G84U G88A G133A | ≤ -4.2 |
| U56A U78G G83A C129U | ≤ -4.2 |
| U56A U78G G92U | ≤ -4.2 |
| U56A U82A A137C G141C | ≤ -4.2 |
| U56A U82C C87G A150U | -3.31 |
| U56A U82C G88C U144A | ≤ -4.2 |
| U56A U82G | 0.243 |

| Variant | polymerase ribozyme fitness (log ratio) |
| --- | --- |
| U56A U82G G94A A120G U135C U139A | ≤ -4.2 |
| U56A U90C G92U C103G | ≤ -4.2 |
| U56A U90C U144G | -3.91 |
| U56A U90G | ≤ -4.2 |
| U56A U90G C149U | ≤ -4.2 |
| U56A U102A A107G | ≤ -4.2 |
| U56A U102G | -2.4 |
| U56A U102G G141U U145C A150U | ≤ -4.2 |
| U56A U104G A115C A142C | ≤ -4.2 |
| U56A U104G C105A G124U G140A U145A | ≤ -4.2 |
| U56C A60G U61G A66G C87U A122G | ≤ -4.2 |
| U56C A64U C93A C95U G133C | ≤ -4.2 |
| U56C C72G U148A | ≤ -4.2 |
| U56C C76A A91U A97G G140A G141U | ≤ -4.2 |
| U56C C85G U135C A142U G152A | ≤ -4.2 |
| U56C C87G C118U A119U | ≤ -4.2 |
| U56C C87U | -1.06 |
| U56C C93U | -1.53 |
| U56C C93U C114G A119G | -3.79 |
| U56C G58U C114U A119U | -1.67 |
| U56C G68C C87U C99A | ≤ -4.2 |
| U56C G83A C87G C123U G141A | ≤ -4.2 |
| U56C G94C | 0.00198 |
| U56C G143U | -2.95 |

| Variant | polymerase ribozyme fitness (log ratio) |
| --- | --- |
| U56C U82G | -0.541 |
| U56G A60C C87A G128A A137C G141U | ≤ -4.2 |
| U56G A60G C99U U102A | -2.07 |
| U56G A60G G84A | -0.664 |
| U56G A60U A64G A66C C87A | ≤ -4.2 |
| U56G A64G C72U C129A G140A | ≤ -4.2 |
| U56G A64U A107C G143C U145G | ≤ -4.2 |
| U56G A64U G81A G88A C114A A115U G141U | ≤ -4.2 |
| U56G A66C G81A C87U G117A | ≤ -4.2 |
| U56G A66G C129A U146G | ≤ -4.2 |
| U56G A73G C87A G94U C118U | ≤ -4.2 |
| U56G A73G C87G U101C A115C G140U | ≤ -4.2 |
| U56G A91G | -3.24 |
| U56G A97C | -1.65 |
| U56G A142U | -0.88 |
| U56G A150C | -3.51 |
| U56G C57A A66U C75G C85U A121U U134A U144C | ≤ -4.2 |
| U56G C57G G80C A91C C99A C103U G133C A137C U148G C149U | ≤ -4.2 |
| U56G C63U C93G | -3.47 |
| U56G C69A C76G C85G A122U | ≤ -4.2 |
| U56G C69A C85A C96U G143C | ≤ -4.2 |
| U56G C69U A73U U134C G141U U146A | -2.72 |
| U56G C76A U130G G141A | ≤ -4.2 |
